# Experimental data as given in the supplement of paper PMC8728848.
# The list shows a part of the results.
# Key:
# Assay in all cases: glycan array binding signal (z-score within array); higher = stronger binding
# Conditions in all cases: glycan notation: IUPAC condensed, linker removed
# Fuc(a1-2)Gal = target: Fuc(a1-2)Gal
# Outline: (§1)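 Arrays were curated from the Consortium for Functional Glycomics database, 3228 in total, and kept only where the protein sequence was available. Binding is expressed as a within-array Z-score. This score was averaged across arrays of the same protein sequence at different concentrations or buffers and across linkers, and negative values can be read as non-binding.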
# Fuc(a1-2)Gal(b1-3)GalNAc = target: Fuc(a1-2)Gal(b1-3)GalNAc
# Outline: as §1
# [1] = target: Fuc(a1-2)Gal(b1-3)GalNAc(a1-3)[Fuc(a1-2)]Gal(b1-4)Glc
# Outline: as §1
# [2] = target: Fuc(a1-2)Gal(b1-3)GalNAc(a1-3)[Fuc(a1-2)]Gal(b1-4)GlcNAc
# Outline: as §1
# [3] = target: Fuc(a1-2)Gal(b1-3)GalNAc(b1-3)Gal
# Outline: as §1
# [4] = target: Fuc(a1-2)Gal(b1-3)GalNAc(b1-3)Gal(a1-4)Gal(b1-4)Glc
# Outline: as §1
# [5] = target: Fuc(a1-2)Gal(b1-3)GalNAc(b1-4)[Neu5Ac(a2-3)]Gal(b1-4)Glc
# Outline: as §1
# Fuc(a1-2)Gal(b1-3)GlcNAc = target: Fuc(a1-2)Gal(b1-3)GlcNAc
# Outline: as §1
# [6] = target: Fuc(a1-2)Gal(b1-3)GlcNAc(b1-2)Man(a1-3)[Fuc(a1-2)Gal(b1-3)GlcNAc(b1-2)Man(a1-6)]Man(b1-4)GlcNAc(b1-4)GlcNAc
# Outline: as §1
# [7] = target: Fuc(a1-2)Gal(b1-3)GlcNAc(b1-2)Man(a1-3)[Fuc(a1-2)Gal(b1-3)GlcNAc(b1-2)Man(a1-6)]Man(b1-4)GlcNAc(b1-4)[Fuc(a1-6)]GlcNAc
# Outline: as §1
# [8] = target: Fuc(a1-2)Gal(b1-3)GlcNAc(b1-3)Gal(b1-4)Glc
# Outline: as §1
# [9] = target: Fuc(a1-2)Gal(b1-3)GlcNAc(b1-3)GalNAc
# Outline: as §1
# [10] = target: Fuc(a1-2)Gal(b1-3)GlcNAc(b1-3)[Fuc(a1-2)Gal(b1-3)GlcNAc(b1-6)]GalNAc
# Outline: as §1
# [11] = target: Fuc(a1-2)Gal(b1-3)GlcNAc(b1-3)[Gal(b1-4)GlcNAc(b1-6)]Gal(b1-4)Glc
# Outline: as §1
# [12] = target: Fuc(a1-2)Gal(b1-3)GlcNAc(b1-3)[Neu5Ac(a2-6)Gal(b1-4)GlcNAc(b1-6)]Gal(b1-4)Glc
# Outline: as §1
# [13] = target: Fuc(a1-2)Gal(b1-3)GlcNAc6S
# Outline: as §1
# [14] = target: Fuc(a1-2)Gal(b1-3)[Fuc(a1-4)]GlcNAc
# Outline: as §1
# [15] = target: Fuc(a1-2)Gal(b1-3)[Fuc(a1-4)]GlcNAc(b1-2)Man(a1-3)[Fuc(a1-2)Gal(b1-3)[Fuc(a1-4)]GlcNAc(b1-2)Man(a1-3)]Man(b1-4)GlcNAc(b1-4)GlcNAc
# Outline: as §1
# [16] = target: Fuc(a1-2)Gal(b1-3)[Fuc(a1-4)]GlcNAc(b1-2)Man(a1-3)[Fuc(a1-2)Gal(b1-3)[Fuc(a1-4)]GlcNAc(b1-2)Man(a1-6)]Man(b1-4)GlcNAc(b1-4)[Fuc(a1-6)]GlcNAc(b1-4)[Fuc(a1-6)]GlcNAc
# Outline: as §1
# [17] = target: Fuc(a1-2)Gal(b1-3)[Fuc(a1-4)]GlcNAc(b1-3)[Fuc(a1-3)[Gal(b1-4)]GlcNAc(b1-6)]Gal(b1-4)Glc
# Outline: as §1
# [18] = target: Fuc(a1-2)Gal(b1-3)[Fuc(a1-4)]GlcNAc(b1-3)[Gal(b1-4)GlcNAc(b1-6)]Gal(b1-4)Glc
# Outline: as §1
# Fuc(a1-2)Gal(b1-4)Glc = target: Fuc(a1-2)Gal(b1-4)Glc
# Outline: as §1
binder,measurement,setting,value
EULS2 M4 (Oryza sativa) (protein) MVYCRANPNYAMTARNGAVVLAPANPKDEYQHWIKDMRWSTSIKDEEGYPAFALVNKATGQAIKHSLGQSHPVRLVPYNPEVMDESVLWTESRDVGNGFRCIRMVNNIYLNFDAFHGDKYHGGVRDGTDIVLWKWCEGDSLRWKIQPYYILEQKLISEEDLNSAVDHHHHHH,glycan array binding signal (z-score),Fuc(a1-2)Gal,0.398
same,glycan array binding signal (z-score),Fuc(a1-2)Gal(b1-3)GalNAc,-0.317
same,glycan array binding signal (z-score),[1],-0.362
same,glycan array binding signal (z-score),[2],-0.405
same,glycan array binding signal (z-score),[3],0.371
same,glycan array binding signal (z-score),[4],-0.236
same,glycan array binding signal (z-score),[5],-0.276
same,glycan array binding signal (z-score),Fuc(a1-2)Gal(b1-3)GlcNAc,-0.073
same,glycan array binding signal (z-score),[6],0.444
same,glycan array binding signal (z-score),[7],0.367
same,glycan array binding signal (z-score),[8],-0.293
same,glycan array binding signal (z-score),[9],-0.542
same,glycan array binding signal (z-score),[10],-0.233
same,glycan array binding signal (z-score),[11],-0.123
same,glycan array binding signal (z-score),[12],-0.398
same,glycan array binding signal (z-score),[13],0.453
same,glycan array binding signal (z-score),[14],-0.403
same,glycan array binding signal (z-score),[15],0.146
same,glycan array binding signal (z-score),[16],0.681
same,glycan array binding signal (z-score),[17],0.066
same,glycan array binding signal (z-score),[18],-0.039
same,glycan array binding signal (z-score),Fuc(a1-2)Gal(b1-4)Glc,0.003
